Laboratory results as given in PubChem BioAssay AID588334 (Broad Institute, 2011).
Out of some 300,000 compounds screened, about 2,300 (0.77%) were called active. The shares of active, inactive and inconclusive entries below differ from those in the screen.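 The calls were made as follows: active = mean activation of at least 80% with every replicate also reaching 80%; inconclusive = mean reaches 80% but some replicate falls short; inactive = the rest.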

experiment: MITF-driven TRPM1 luciferase induction in melanoma cells – cell-based, SK-MEL-5, single point, primary screen (AID 588334); conditions: SK-MEL-5 TRPM1-promoter luciferase, 24 h; at 12.5 µM; stronger effect = higher value; % of positive control, neutral wells = 0;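 also: 0% = neutral control wells and 100% = parthenolide positive control wells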

Structure (SMILES)	activation
Cc1ccc(NC(=O)COC(=O)Cn2nc(-c3ccc(F)cc3)oc2=O)cc1C	inactive: -12.1%
O=C(Nc1ccc(Br)cc1)c1cc(-c2cccs2)on1	inconclusive: 81.2%
CS/C(N)=N/N=C/c1cc(C)ccc1O	inconclusive: 96.5%
c1cnc2c(OCc3nc4ccccc4[nH]3)cccc2c1	inactive: 69.9%
Clc1cccc(CSc2ncn(-c3ccccc3)n2)c1	inactive: 54.7%
Cc1ccc(C(=O)c2ccccc2C(=O)OCC(=O)Nc2ccc(SC(F)F)cc2)cc1	inactive: 16%
O=C(Cc1cccc(NC(=O)C2CCN(C(=O)C3CCCC3)CC2)c1)Nc1cccc(C(=O)N2CCCC2)c1	inactive: -21.4%
O=C(Nc1ccc2c(c1)OCO2)Nc1ccc(F)cc1F	inconclusive: 80.4%
CCOC(=O)c1sc(=NC(=O)c2cccc(OC)c2)n(C)c1C	inconclusive: 81.1%
Cc1ccc(NC(=O)N2CCc3ccccc3C2)cc1	inconclusive: 85.4%
COc1ccc(OCc2cc(C(=O)N3CCOCC3)no2)c(Cl)c1	inconclusive: 82.5%
COc1ccc(NC(=S)Nc2ccccn2)cc1	inconclusive: 81.2%
CC(=O)c1cccc(NC(=O)c2cc3nc(C)cc(C)n3n2)c1	inconclusive: 81.9%
Cc1ccc(N/N=C/c2ccncc2)cc1	inconclusive: 82.1%
COc1ccc(OC)c(S(=O)(=O)N2CCC3(CC2)OCCN3S(=O)(=O)c2cccs2)c1	inactive: 4.25%
Cc1ccc(/C=C/C(=O)NCCc2ccccc2)o1	inactive: 57.3%
COc1ccc(NC(=O)Nc2nc3ccccc3s2)cc1	inconclusive: 86.6%
O=C(CSc1nc2ccccc2o1)Nc1nc(-c2ccccc2)cs1	inactive: 35.9%
CCOC(=O)c1c(C)[nH]c(C)c1C(=O)COC(=O)[C@@H]1CCCN1S(=O)(=O)c1ccc(Cl)cc1	inactive: -8.18%
Cc1ccnc(NC(=O)c2ccc(S(=O)(=O)N3CCCCCC3)cc2)c1	active: 83.5%
NC(=O)Cc1nc(-c2ccc(Br)cc2)cs1	inactive: 9.12%

Structure (SMILES)	activation
CCO[C@@H]1OC(C(=O)N2CCN(Cc3ccccc3)CC2)=C[C@H](c2cn(C(C)=O)c3ccccc23)[C@H]1CCCO	inactive: 5.86%
O=[N+]([O-])c1ccc2nc(-c3ccc(Cl)cc3)[nH]c2c1	inactive: 41.2%
CCCCNC(=O)c1cc2ccccc2s1	inconclusive: 80.7%
COc1ccc2nc(N3C(=O)C(O)=C(C(=O)c4ccco4)C3c3ccccc3OC)sc2c1 (stereo unspecified)	inactive: -0.334%
Cc1cc(C(=O)Cn2nc(C(=O)O)c3ccccc3c2=O)c(C)n1CC(F)(F)F	inconclusive: 81%
COc1ccc(OCC(=O)Nc2ccc(N3CCN(C(=O)c4ccccc4)CC3)c(Cl)c2)cc1	inactive: -44.4%
O=C(COc1ccc2ccccc2c1Br)Nc1cccnc1	active: 114%
Cc1ccc(Oc2cnc3ccccc3n2)cc1	active: 109%
CCCCC(=O)Nc1ccc2c(c1)oc1ccccc12	inconclusive: 81.6%
N/C(=N/OC(=O)c1ccccc1Cl)c1nonc1N	inconclusive: 81.9%
CC(C)(C)OC(=O)NCCCC[C@@H](C(=O)NCCCCCCCCCCC(=O)N1CCN(C(=O)OC(C)(C)C)CC1)n1cc(CCO)nn1	inactive: -13.8%
COC(=O)c1cn[nH]c1NC(=S)Nc1ccccc1C	inconclusive: 81%
Cc1ccc(C(=O)COC(=O)c2ccc(O)cc2)cc1	inconclusive: 81.5%
Cc1cc(OCC(=O)NNC(=O)c2cnccn2)cc(C)c1Cl	inactive: -0.219%
Cc1cc(C)c(C#N)c(SCC(=O)Nc2cc(C)on2)n1	inconclusive: 80.7%
CC(=O)c1cccc(NC(=O)c2cnn(-c3ccccc3)c2C)c1	inconclusive: 94.7%
O=C(c1ccc(S(=O)(=O)N2CCCCC2)cc1)N1CCN(c2ccccc2F)CC1	inactive: 2.64%
COc1ccc(NC(=O)n2ncc3cc(Cl)ccc32)cc1OC	inconclusive: 80.3%
c1ccn2cc(-c3ccc4c(c3)OCO4)cc2c1	inconclusive: 86.7%
O=c1cc(COc2ncnc3ccccc23)nc2sccn12	inactive: 0.423%
COc1ccc(NC(=O)Nc2ccccc2OC)cc1	inconclusive: 86.6%

Structure (SMILES)	activation
Cc1ccc(N2CCN(C(=O)c3ccccc3Br)CC2)c(C)c1	inactive: -0.207%
Cc1csc2nc(CSc3ccc(Cl)cc3)cn12	active: 91.8%
CC1CCc2nc(NC(=O)Cc3cccs3)sc2C1 (stereo unspecified)	active: 126%
Cc1nc(N/N=C\c2ccc3c(c2)OCO3)sc1C	inconclusive: 81.7%
O=C(Nc1nc2c(F)c(F)c(F)cc2s1)c1ccco1	inconclusive: 80.9%
O=c1nc2sc3ccccc3n2c(=O)n1-c1ccc(Cl)cc1	active: 114%
COC(C(=O)N/N=C(\C)CC(=O)Nc1ccc(N(C)C)cc1)c1ccccc1 (stereo unspecified)	inactive: -9.23%
CCCc1ccc(Oc2cn[nH]c2-c2ccc(O)c(C)c2O)cc1	inactive: -6.85%
Nc1nc(COc2ccc3ccccc3c2)cs1	active: 104%
COc1ccc(-n2ncc3c(NCc4cccs4)ncnc32)cc1	inconclusive: 81.5%
CN1CCSc2ccc(C(=O)Nc3ccc(Cl)cc3)cc21	inconclusive: 85.3%
COCCCC1CCN(C(=O)c2cc(COc3cc(C)ccc3C)on2)CC1	inconclusive: 89.6%
O=C(c1ccc(-c2ccccc2Cl)o1)N1CCCCCCC1	inconclusive: 81.3%
CCCCn1nnc(NC(=O)c2cc3ccccc3o2)n1	inconclusive: 87.2%
Cc1ccc(OCc2cc(C(=O)N(C)CC3CCOCC3)no2)cc1C	active: 95.9%
c1ccc2c(Nc3nnc(-c4ccncc4)s3)cccc2c1	inconclusive: 82.5%
CCOP1(=O)C=C(Sc2ccc([N+](=O)[O-])cc2[N+](=O)[O-])C(C)(C)O1 (stereo unspecified)	inactive: 1.79%
Cc1cc(=O)oc2c(CN3CCCCC3)c(O)c(Cl)cc12	inactive: -1.13%
COc1cc(/C=C2\SC(c3ccc(C)cc3)=NC2=O)cc(OC)c1O	inactive: 0.634%
